Numbering of substitutions follows the chain as printed.
T1: human GIPR (human, UniProt P48546 22-466)
T1 sequence: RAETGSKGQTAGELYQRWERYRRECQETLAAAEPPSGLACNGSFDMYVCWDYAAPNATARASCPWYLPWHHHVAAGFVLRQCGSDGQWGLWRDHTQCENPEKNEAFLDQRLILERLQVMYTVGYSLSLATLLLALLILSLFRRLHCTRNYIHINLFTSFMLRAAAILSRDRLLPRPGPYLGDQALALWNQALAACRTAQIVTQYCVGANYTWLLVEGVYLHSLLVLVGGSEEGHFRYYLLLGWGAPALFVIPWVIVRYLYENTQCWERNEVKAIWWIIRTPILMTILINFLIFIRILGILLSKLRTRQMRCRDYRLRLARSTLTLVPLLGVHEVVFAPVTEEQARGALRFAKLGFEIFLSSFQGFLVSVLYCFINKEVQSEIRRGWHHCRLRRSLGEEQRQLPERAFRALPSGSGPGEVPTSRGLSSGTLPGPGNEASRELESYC

T2: huGIPR ECD (human, UniProt P48546 21-129, limits assumed)
T2 construct: Soluble analyte of the Biacore assay; also called human GIPR extracellular domain
T2 sequence: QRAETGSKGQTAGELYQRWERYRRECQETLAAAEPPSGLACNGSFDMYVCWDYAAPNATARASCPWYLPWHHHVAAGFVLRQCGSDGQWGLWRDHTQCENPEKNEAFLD

T3: murine GIPR (murine, UniProt Q0P543 19-460, limits assumed)
T3 sequence: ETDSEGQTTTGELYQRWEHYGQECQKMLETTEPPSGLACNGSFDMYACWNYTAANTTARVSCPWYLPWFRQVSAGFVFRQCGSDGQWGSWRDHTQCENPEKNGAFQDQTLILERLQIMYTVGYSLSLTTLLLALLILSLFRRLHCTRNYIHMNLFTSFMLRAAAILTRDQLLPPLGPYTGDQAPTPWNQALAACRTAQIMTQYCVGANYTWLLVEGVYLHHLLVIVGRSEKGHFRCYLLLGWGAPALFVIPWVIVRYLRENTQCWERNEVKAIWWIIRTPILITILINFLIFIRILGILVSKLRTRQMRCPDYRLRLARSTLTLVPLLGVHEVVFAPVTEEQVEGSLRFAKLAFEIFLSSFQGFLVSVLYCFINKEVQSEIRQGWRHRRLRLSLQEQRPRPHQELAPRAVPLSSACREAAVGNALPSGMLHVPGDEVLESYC

B1: 2G10.320 (antibody, human IgG1, kappa, N297G)
light: EIVMTQSPATLSVSPGERATLSCRASQSVSEHLAWYQQKPGQAPRLLIYEAATRATGIPARFSGSGSGTEFTLTISSLQSEDFAVYYCQQYQNWPLTFGGGTKVEIKRTVAAPSVFIFPPSDEQLKSGTASVVCLLNNFYPREAKVQWKVDNALQSGNSQESVTEQDSKDSTYSLSSTLTLSKADYEKHKVYACEVTHQGLSSPVTKSFNRGEC
heavy: QVQLVESGGGVVQPGRSLRLSCAASGFTFSNYGMHWVRQAPGEGLEWVAAIWFDASDKYYAD[sequence of about 20 residues not given]MNSLRAEDTAVYYCARDLAIFGVIPDYWGQGTLVTVSSASTKGPSVFPLAPSSKSTSGGTAALGCLVKDYFPEPVTVSWNSGALTSGVHTFPAVLQSSGLYSLSSVVTVPSSSLGTQTYICNVNHKPSNTKVDKKV[sequence of human IgG1 Fc with R292C N297G V302C (EU numbers) not given]
B2: 2G10.346 (antibody, human IgG1, kappa, N297G)
light: B1 light with E31S, H32N, E50G, Q92N
heavy: QVQLVESGGGVVQPGRSLRLSCAASGFTFSNYGMHWVRQAPGEGLEWVAAIWFDASDKYYAD[sequence of about 20 residues not given]MNSLRAEDTAVYYCARDIAIFGVVPDYWGQGTLVTVSSASTKGPSVFPLAPSSKSTSGGTAALGCLVKDYFPEPVTVSWNSGALTSGVHTFPAVLQSSGLYSLSSVVTVPSSSLGTQTYICNVNHKPSNTKVDKKV[sequence of human IgG1 Fc with R292C N297G V302C (EU numbers) not given]
B3: iPS:529381 (antibody, human IgG1, kappa, N297G)
light: B1 light
heavy: QVQLVESGGGVVQPGRSLRLSCAASGFTFSNYGMHWVRQAPGEGLEWVAAIWFDASDKYYAD[sequence of about 20 residues not given]MNSLRAEDTAVYYCARDLAIFGVIPDYWGQGTLVTVSSASTKGPSVFPLAPSSKSTSGGTAALGCLVKDYFPEPVTVSWNSGALTSGVHTFPAVLQSSGLYSLSSVVTVPSSSLGTQTYICNVNHKPSNTKVDKKVEPKSCDKTHTCPPCPAPELLGGPSVFLFPPKPKDTLYITREPEVTCVVVDVSHEDPEVKFNWYVDGVEVHNAKTKPCEEQYGSTYRCVSVLTVLHQDWLNGKEYKCKVSNKALPAPIEKTISKAKGQPREPQVYTLPPSREEMTKNQVSLTCLVKGFYPSDIAVEWESNGQPENNYKTTPPVLDSDGSFFLYSKLTVDKSRWQQGNVFSCSVMHEALHNHYTQKSLSLSPGK
B4: iPS:529382 (antibody, human IgG1, kappa, N297G)
light: B1 light with E31S, H32N, E50G, Q92N
heavy: QVQLVESGGGVVQPGRSLRLSCAASGFTFSNYGMHWVRQAPGEGLEWVAAIWFDASDKYYAD[sequence of about 20 residues not given]MNSLRAEDTAVYYCARDIAIFGVVPDYWGQGTLVTVSSASTKGPSVFPLAPSSKSTSGGTAALGCLVKDYFPEPVTVSWNSGALTSGVHTFPAVLQSSGLYSLSSVVTVPSSSLGTQTYICNVNHKPSNTKVDKKVEPKSCDKTHTCPPCPAPELLGGPSVFLFPPKPKDTLYITREPEVTCVVVDVSHEDPEVKFNWYVDGVEVHNAKTKPCEEQYGSTYRCVSVLTVLHQDWLNGKEYKCKVSNKALPAPIEKTISKAKGQPREPQVYTLPPSREEMTKNQVSLTCLVKGFYPSDIAVEWESNGQPENNYKTTPPVLDSDGSFFLYSKLTVDKSRWQQGNVFSCSVMHEALHNHYTQKSLSLSPGK

What was measured:
human GIPR [1] = target: T1, human GIPR; experiment: cell-based or functional assay
huGIPR ECD = target: T2, huGIPR ECD; experiment: SPR (Biacore T200), mAb captured via goat anti-huFc, 200 nM huGIPR ECD analyte
Method: Immobilization of Goat-anti-huFc antibody to a S-CM5 sensor chip surface was performed according to manufacturer's instructions. The Biacore instrument running buffer is 0.005% P20/PBS 1×, pH7.4, no calcium chloride, no magnesium chloride. Briefly, carboxyl groups on the sensor chip surfaces were activated by injecting 60 μL of a mixture containing 0.2 M N-ethyl-N′-(dimethylaminopropyl) carbodiimide (EDC) and 0.05 M N-hydroxysuccinimide (NHS). Goat-anti-huFc antibody was diluted in 10 mM sodium acetate, pH 4.0 at 20 μg/ml and injected over the activated chip surface at 30 uL/min for 6 minutes. Excess reactive groups on the surfaces were deactivated by injecting 60 μL of 1 M ethanolamine. Final immobilized level was ˜8000 resonance units (RU).
Binding assays were carried out on the immobilized goat anti-huFc antibody surface by Biacore T200. The experiment was performed at 25° C. The instrument running buffer was 0.005% P20/PBS. The goat anti-huFc capture antibody was covalently attached to the sensor chip surface via standard amine coupling to flow cells channel 1-4. The anti-huGIPR antibodies were diluted in sample buffer (0.1 mg/ml BSA, 0.005% P20, PBS) to ˜10 nM then captured to flow cells channel 2, 3, 4. Flow cell channel 1 was as a blank reference surface without injection of anti-huGIPR antibody. The captured antibody response range was ˜250 RU. […]

murine GIPR = target: T3, murine GIPR; experiment: cell-based or functional assay
human GIPR [2] = target: T1, human GIPR; experiment: cell-based or functional assay; remark: listed apart in the source

Binder	cAMP IC50 (human GIPR [1]) [nM]	koff (huGIPR ECD) [s⁻¹]	murine cAMP (murine GIPR) [nM]	human cAMP IC50 (human GIPR [2]) [nM]
B1	14	< 5e-05	–	–
B2	22.2	0.0001	–	–
B3	–	–	9.3	33.2
B4	–	–	49.7	26.2

From patent publication US20210087286A1 (Amgen, published 2021)
